According to the supplement of paper PMC12217912:
The other results are listed elsewhere or left out. Sequences were assembled here from the parent chain. Inactive controls read about 0.05.

B1: TEV protease; numbered along this chain (parent)
chain: MGESLFKGPRDYNPISSSICHLTNESDGHTTSLYGIGFGPFIITNKHLFRRNNGTLVVQSLHGVFKVKDTTTLQQHLVDGRDMIIIRMPKDFPPFPQKLKFREPQREERICLVTTNFQTKSMSSMVSDTSCTFPSGDGIFWKHWIQTKDGQCGSPLVSTRDGFIVGIHSASNFTNTNNYFTSVPKNFMELLTNQEAQQWVSGWRLNADSVLWGGHKVFMVKPEEPFQPVKEATQL

Variants of: B1
Assay: raw area under fraction-flipped curve 0-4 h after induction (AUC4h, not background-subtracted), DNA-recorder readout of cleavage of the substrate (dimensionless); higher = more cleavage of the substrate by the protease variant
Conditions: temperature: 34 °C; time window: 0-4 h after rhamnose induction
Protocol: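 In vivo DNA recorder in E. coli TOP10(DE3) ΔrhaA at 34 °C. Each TEVp single-site mutant (parent TEVp 0) is paired with a single-site variant of the 7-mer TEVs (canonical ENLYFQ|S). The substrate sits between flexible linkers in a Bxb1-sfGFP-TEVs-SsrA fusion, so cleavage stabilises Bxb1 and speeds flipping of a recombination array, read by NGS. The value is the raw area under the fraction-flipped curve over 0-4 h after rhamnose induction (AUC4h), with ≥20 reads per time point. It is not background-subtracted; inactive controls average about 0.047.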
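Also: Bxb1 expression induced with 0.2% (w/v) L-rhamnose at OD600 near 0.5, cultures sampled hourly, flipped fraction per protease–substrate barcode pair counted by paired-end Illumina sequencing.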

Variant	area with substrate ENAYFQS	area with substrate ENDYFQS	area with substrate ENNYFQS	area with substrate ENQYFQS	area with substrate ENRYFQS	area with substrate ENTYFQS	area with substrate ENEYFQS	area with substrate ENFYFQS	area with substrate ENGYFQS	area with substrate ENHYFQS	area with substrate ENIYFQS	area with substrate ENKYFQS	area with substrate ENSYFQS	area with substrate ENVYFQS	area with substrate ENCYFQS	area with substrate ENPYFQS	area with substrate ENWYFQS	area with substrate ENYYFQS	area with substrate ENMYFQS
G35R	0.0576	0.0713	0.0387	0.0501	0.0371	0.0424													
I36P	0.0547	0.0471	0.0441	0.0418	0.0224	0.034	0.0393	0.0486	0.0362	0.0444	0.0436	0.0276	0.0369	0.0483					
F38R	0.0532	0.0485	0.0521	0.0612	0.0566	0.0721	0.0538	0.0539	0.0574	0.0482	0.0608	0.0435	0.0608	0.0549	0.053	0.06	0.0377	0.066	
P40M	0.0717	0.0605	0.0734	0.0545			0.0574		0.0648				0.0754	0.0719		0.0399		0.0771	
P40W	0.05	0.0467	0.0718	0.0577	0.0535	0.0513	0.0739	0.0551	0.0532	0.0213	0.0906	0.0599	0.0576	0.0769	0.0479	0.0512			
F41D	0.043	0.0377	0.0551	0.0456	0.0477	0.0577	0.057			0.0469		0.0516	0.059	0.0562	0.0484	0.0449	0.057		
I42S	0.0427	0.0488	0.0544	0.0542	0.0448	0.0467	0.0473	0.0449	0.0465	0.0397	0.0556		0.0472	0.0474	0.0334	0.0457			
T44R	0.0524	0.0501	0.0475	0.0516	0.0479	0.0465	0.0461	0.0478	0.0484			0.0543	0.0513	0.0278	0.0646	0.0312	0.0325		0.0434
N45L	0.0447	0.0652	0.0495	0.0627	0.047	0.0517	0.0616			0.0723		0.0643	0.0618	0.0569		0.0252			
N45W	0.0606	0.0621	0.0571	0.0591	0.0541	0.0542	0.0593	0.0604	0.0798	0.0699	0.0744		0.0622	0.0601	0.061		0.055		0.0657
N45Y	0.0592	0.063	0.0638	0.0583	0.0681	0.0607	0.0635	0.0469	0.0572	0.0532	0.0723	0.0668	0.0648	0.0411	0.0512		0.0379	0.0621	0.0484
K46N	0.0595	0.0631	0.0615	0.0655			0.0566		0.0657			0.0477	0.0834	0.0614					
H47G	0.0528	0.0686	0.0506	0.0563	0.0575	0.054	0.0656	0.061	0.0626	0.0594	0.0741	0.0376	0.0703	0.0532	0.0658	0.06	0.0585	0.0485	0.0708
L48D	0.0754	0.0565	0.0676	0.0606	0.0648	0.0541	0.067	0.0562	0.063	0.0853	0.0455	0.0666	0.0714	0.0594	0.0632	0.0541	0.0631		
L48P	0.0405	0.0688		0.057		0.0615		0.057	0.0078		0.0674		0.0611			0.0533			0.0505
L48Y	0.0537	0.0708		0.0532	0.0636	0.0688	0.0589	0.0635			0.0701		0.0615	0.052	0.0665				0.0621
N52G	0.0787	0.057	0.0561	0.0587	0.0549	0.0628	0.0598	0.0645	0.0682	0.0622	0.0839	0.0496		0.0581	0.0608	0.0592		0.0588	0.0592
T55Q	0.0672	0.0656	0.062	0.0626	0.0599	0.0607	0.0538	0.0743		0.0585	0.108	0.0627		0.0567	0.0866	0.0671			0.0696
T55V	0.0634	0.0584		0.061	0.064	0.0554	0.0578		0.0728		0.126	0.0591	0.0668	0.0791	0.0616	0.0534	0.0631	0.0565	0.0763
L56A	0.0421	0.0549	0.0788	0.0417	0.0457	0.0487	0.0548	0.0513	0.0502		0.0779		0.0504	0.0591	0.0445				0.0564
L56F	0.0579	0.061	0.0585	0.045	0.0572	0.0487	0.0598	0.0599	0.0684	0.0553	0.0848	0.0789	0.0663	0.0653	0.069	0.0625		0.0639	
L56G	0.0708	0.0454	0.0128	0.0416	0.0358	0.0103	0.0444	0.0455					0.0521	0.0399	0.0587	0.0485	0.0452		0.0501
L56H	0.0722	0.0379		0.0501	0.0251				0.0503	0.0529	0.0492	0.0551		0.0654	0.051		0.0483	0.0589	0.0502
L56K	0.0316	0.0379		0.0476	0.0339	0.0592	0.0482	0.0403	0.0451			0.052	0.0452	0.0512	0.0486	0.0317			0.0324
